The values that follow come from patent US20160319036A1 (Hoffmann-La Roche, published 2016).

Experiment [1] has as its target T1, DR5 on DR5-expressing MDA-MB 231 tumor cells (human, UniProt O14763 56-440).
T1 construct: whole, on cells; also called DR5 positive MDA-MB 231 cells
Briefly: FACS on DR5-expressing MDA-MB 231 cells, detection with Dylight649 anti-human IgG Fc F(ab')2. On the procedure: (§1) As control another tetravalent bispecific DR5/FAP antibody construct containing the same binders was used. Briefly, 0.2 Mio cells per well in a 96 well round bottom plate were incubated with 40 μl of the indicated concentration of the constructs for 30 min at 4° C. Unbound construct was removed by washing the cells with PBS containing 0.1% BSA. Bound constructs were detected with Dylight649-conjugated AffiniPure F(ab′)2 Fragment goat anti-human IgG Fcg Fragment Specific secondary antibody (Jackson ImmunoResearch #109-496-098; working solution 1:50 in PBS, 0.1% BSA). After 30 min incubation at 4° C. unbound antibody was removed by washing and cells were fixed using 1% PFA. Cells were analyzed using BD FACS Cantoll (Software BD DIVA). Binding of bispecific modified common light chain DR5/FAP-kappa-lambda antibody GA803_G25_H14D_001 was tested on DR5 positive MDA-MB 231 cells. The construct binds in a concentration dependent manner to MDA-MB 231 cells (FIG. 7).

For experiment [2], the target named is T2, FAP on FAP-expressing fibroblast cell line GM05389 (human, UniProt Q12884 1-760).
T2 construct: whole, on cells; also called FAP positive GM05389 fibroblasts
T2 sequence (looked up): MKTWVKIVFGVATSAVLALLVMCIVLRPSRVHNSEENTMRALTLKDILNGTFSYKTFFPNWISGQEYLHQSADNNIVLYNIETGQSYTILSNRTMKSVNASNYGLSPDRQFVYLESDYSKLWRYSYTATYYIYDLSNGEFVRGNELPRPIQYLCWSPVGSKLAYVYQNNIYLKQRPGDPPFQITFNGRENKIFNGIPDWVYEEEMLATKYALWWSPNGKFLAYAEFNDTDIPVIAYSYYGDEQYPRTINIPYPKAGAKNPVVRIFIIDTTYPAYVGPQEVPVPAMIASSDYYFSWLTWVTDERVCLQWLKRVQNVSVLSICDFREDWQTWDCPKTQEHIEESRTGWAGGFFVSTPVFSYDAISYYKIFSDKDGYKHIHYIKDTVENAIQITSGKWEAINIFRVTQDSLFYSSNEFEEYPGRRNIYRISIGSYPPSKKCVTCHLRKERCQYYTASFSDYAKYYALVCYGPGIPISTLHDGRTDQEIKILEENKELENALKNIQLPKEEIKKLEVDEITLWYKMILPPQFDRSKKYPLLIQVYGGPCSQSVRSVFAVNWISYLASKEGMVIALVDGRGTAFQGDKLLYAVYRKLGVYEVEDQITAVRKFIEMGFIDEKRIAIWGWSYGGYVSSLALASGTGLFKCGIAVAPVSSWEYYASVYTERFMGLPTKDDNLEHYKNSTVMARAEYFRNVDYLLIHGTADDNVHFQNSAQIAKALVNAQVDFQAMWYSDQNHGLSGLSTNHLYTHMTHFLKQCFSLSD
Briefly: FACS on FAP-expressing GM05389 fibroblasts, detection with Dylight649 anti-human IgG Fc F(ab')2. Here is the method: as §1
Binding of bispecific modified common light chain DR5/FAP-kappa-lambda antibody GA803_G25_H14D_001 was tested on FAP positive GM05389 fibroblasts. The construct binds in a concentration dependent manner to GM05389 cells (FIG. 8).

B1: bispecific modified common light chain DR5/FAP-kappa-lambda antibody GA803_G25_H14D_001 (bispecific antibody, human IgG1, lambda)
heavy: DIQMTQSPSSLSASVGDRVTITCSASQGIRNYLNWYQQKPGKAPKLLIYYTSSLHSGVPSRFSGSGSGTDFTLTISSLQPEDFATYYCQQYSKLPWTFGQGTKVEIKSS[human IgG1 constant region not given here]
light 1: [about 100 residues not given here]GPYGRYAALDYWGQGTLVTVSSASVAAPSVFIFPPSDEQLKSGTASVVCLLNNFYPREAKVQWKVDNALQSGNSQESVTEQDSKDSTYSLSSTLTLSKADYEKHKVYACEVTHQGLSSPVTKSFNRGEC
light 2: [about 100 residues not given here]SVVYSYDPGFDYWGQGTLVTVSGQPKAAPSVTLFPPSSEELQANKATLVCLISDFYPGAVTVAWKADSSPVKAGVETTTPSKQSNNKYAASSYLSLTPEQWKSHRSYSCQVTHEGSTVEKTVAPTECS
notes: 1+1 bispecific with human IgG1 constant domains: two identical VL-CH1-CH2-CH3 heavy chains, one VH1-CLκ chain (DR5 arm) and one VH2-CLλ chain (FAP arm); also called <FAP(3C6)[CLλ]-DR5(2A11)[CLκ]>; 3C6/2A11
B1: the binding result in experiment [1] and in experiment [2] was “binds” each time.
